# Test results taken from paper PMC4336329 (PLoS ONE, 2015).
# The campaign covered roughly 310,000 compounds. About 2,200 (0.71%) showed an effect of 50% or more. The effect is printed as a negative number. The list shows a part of the results.
# Target: human ether-à-go-go-related gene (hERG) potassium channel (human, UniProt Q12809)
# Assay: primary screen, population patch clamp on CHO cells stably expressing hERG
# Sequence of human ether-à-go-go-related gene (hERG) potassium channel (Q12809 whole entry, looked up): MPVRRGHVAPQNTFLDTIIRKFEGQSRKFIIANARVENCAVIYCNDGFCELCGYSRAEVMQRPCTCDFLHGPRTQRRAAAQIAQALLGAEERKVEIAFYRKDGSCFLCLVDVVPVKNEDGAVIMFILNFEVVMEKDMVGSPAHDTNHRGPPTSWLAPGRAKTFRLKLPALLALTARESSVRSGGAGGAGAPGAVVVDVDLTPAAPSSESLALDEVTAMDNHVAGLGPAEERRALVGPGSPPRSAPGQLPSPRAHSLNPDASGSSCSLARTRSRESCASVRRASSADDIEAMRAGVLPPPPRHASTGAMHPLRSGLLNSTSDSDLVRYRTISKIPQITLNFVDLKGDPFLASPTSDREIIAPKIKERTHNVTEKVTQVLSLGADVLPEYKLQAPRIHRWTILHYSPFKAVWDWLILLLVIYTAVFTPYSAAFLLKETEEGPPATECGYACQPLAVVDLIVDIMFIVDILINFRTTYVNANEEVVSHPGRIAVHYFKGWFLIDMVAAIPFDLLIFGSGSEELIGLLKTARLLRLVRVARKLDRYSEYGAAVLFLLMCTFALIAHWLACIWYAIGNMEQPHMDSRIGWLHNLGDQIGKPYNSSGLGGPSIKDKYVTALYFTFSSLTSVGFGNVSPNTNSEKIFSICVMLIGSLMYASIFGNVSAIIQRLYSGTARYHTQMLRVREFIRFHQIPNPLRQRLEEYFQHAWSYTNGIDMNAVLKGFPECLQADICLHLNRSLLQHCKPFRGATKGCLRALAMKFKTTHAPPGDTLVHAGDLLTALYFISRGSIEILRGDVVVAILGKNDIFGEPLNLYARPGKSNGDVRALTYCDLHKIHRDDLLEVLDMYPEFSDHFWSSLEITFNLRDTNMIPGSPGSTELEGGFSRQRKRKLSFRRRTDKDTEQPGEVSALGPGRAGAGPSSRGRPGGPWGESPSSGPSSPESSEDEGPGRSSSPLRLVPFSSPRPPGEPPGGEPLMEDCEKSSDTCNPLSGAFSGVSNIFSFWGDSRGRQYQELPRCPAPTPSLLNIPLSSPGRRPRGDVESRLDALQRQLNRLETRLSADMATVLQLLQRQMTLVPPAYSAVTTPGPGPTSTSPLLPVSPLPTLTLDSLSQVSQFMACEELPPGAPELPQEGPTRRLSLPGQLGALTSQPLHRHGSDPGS
row,SMILES,"hERG current change (%, negative = inhibition) at 1uM [%]"
1,CCOC(=O)Cc1csc(/N=C/c2c(O)n(-c3ccc(C)cc3C)c(=O)c3ccccc23)n1,0.725
2,O=C(Nc1ccccc1)Nc1ccc(Cl)c(S(=O)(=O)N2CCOCC2)c1,9.5
3,Cc1ccc(OCCNC(=O)c2ccc(COc3ccccc3)o2)cc1,11.2
4,COc1ccc(-c2cc3nc(C)cc(-c4ccc(OC)cc4)n3n2)cc1,8.87
5,Cc1cc(C)c2c(C)c(C(=O)Nc3c(C)n(C)n(-c4ccccc4)c3=O)oc2c1,-0.763
6,Cc1ccc(S(=O)(=O)N2CCN(C(=O)c3cc(S(=O)(=O)N(C)C)ccc3N3CCCC3)CC2)cc1,13.1
7,O=C(COC(=O)c1ccc(NC(=O)C2CC=CCC2C(=O)O)cc1)c1ccccc1 (stereo not shown),9.94
8,Cc1nn(CCOc2ccccc2)c(=O)n1-c1ccccc1F,18.9
9,CC(=O)c1cccc(NC(=O)N2CCc3ccccc3C2)c1,9.5
10,COc1nc(OC)nc(Oc2ccc(Cl)cc2[N+](=O)[O-])n1,-2.2
11,COc1cc(C2N(c3cc(C)on3)C(=O)C3CCCN32)cc(OC)c1OC (stereo not shown),13.3
12,CCOC(=O)c1c(S(=O)(=O)NCC(=O)Nc2cc(C)ccn2)c(C)n(C)c1C,17.2
13,O=C(Nc1ccccc1)c1sc(Cl)nc1-c1ccccc1,1.7
14,CCc1ccc2[nH]c(C)c(CN3CCCCCC3)c(=O)c2c1,-11.9
15,CSCC[C@H](NC(=O)OC(C)(C)C)c1nnc(SCC(N)=O)o1,-5.4
16,COC(=O)c1c(NC(=O)C(C)(C)C)sc2c1C(C(=O)OC)CC2 (stereo not shown),4.07
17,COc1ccccc1N(CN1CCCC1=O)C(=O)COc1ccccc1,7.44
18,Cc1cccc(NC(=O)CSc2nnc(-c3ccccc3)n2N)c1,12.6
19,O=C(CCN1C(=O)S/C(=C\c2ccccc2)C1=O)N1CCOCC1,6.48
20,CC(C)CNS(=O)(=O)c1ccc(CCC(=O)NC2CCCCC2)cc1,5.76
21,CN1CCN(c2nc(-c3ccccc3)c3cc(Cl)ccc3n2)CC1,2.43
22,COc1cc(C2C(C(=O)Nc3ccccc3OC)=C(C)Nc3ncnn32)ccc1O (stereo not shown),4.04

row,SMILES,"hERG current change (%, negative = inhibition) at 1uM [%]"
1,Cc1c(C=O)n(C)n(-c2ccccc2)c1=O,10.9
2,O=C(O)C1C2CCC(C2)C1C(=O)Nc1nc2ccccc2s1 (stereo not shown),19.2
3,Cc1cc(C)cc(N(CCC#N)C(=O)COC(=O)C2CCN(c3ccc(C(F)(F)F)cn3)CC2)c1,-7.76
4,Cc1ccc2c(c1)cc(CN(Cc1cccnc1)C(=O)NCc1ccccc1)c1nnnn12,-44.4
5,O=C(c1cccc(Br)c1)N1CCN(C(=O)N2CCOCC2)CC1,16.9
6,CCN(CC(=O)Nc1c(F)cccc1F)C(=O)c1ccc(C)c(S(=O)(=O)N2CCCCC2)c1,11
7,CCOC(=O)C1=NOC(Cn2cc(C(C)=O)c(=O)[nH]c2=O)C1 (stereo not shown),14.4
8,N=c1c(S(=O)(=O)c2ccc(Cl)cc2)cc2c(=O)n3ccccc3nc2n1CC1CCCO1 (stereo not shown),6.52
9,COc1ccc(N2C(=O)CCC(C(=O)O)C2c2ccccc2OC)cc1 (stereo not shown),4.68
10,CCC(C)NC(=O)C1CCN(S(=O)(=O)CC)CC1 (stereo not shown),9.03
11,Cc1cccc(OCC(=O)NCc2ccc(F)cc2)c1,9.91
12,CN1CCN(c2nc3ccccc3nc2C(C#N)S(=O)(=O)c2ccccc2)CC1 (stereo not shown),3.98
13,COc1ccc(-c2coc3cc(OC)cc(O)c3c2=O)cc1,22.4
14,Cc1ccc(C)c(N2CCN(C(=O)c3ccc(N4CCCC4=O)cc3)CC2)c1,-2.82
15,O=C1NC(c2cccc(Cl)c2)Oc2ccccc21 (stereo not shown),11
16,CN1C(=O)c2ccccc2C(C(=O)O)C1c1cccc([N+](=O)[O-])c1 (stereo not shown),13.6
17,O=C(O)[C@H](CO)Nc1ncnc2sc3c(c12)CCC3,11.9
18,CCOP(=O)(OCC)C(C)(C)NC(=O)c1cc([N+](=O)[O-])cc([N+](=O)[O-])c1,7.38
19,COc1ccc(OCc2nc3c4c(ncn3n2)-c2ccccc2CC42CCCC2)cc1,9.14
20,O=C(Cc1coc2ccc3ccccc3c12)N1CCN(c2ncccn2)CC1,6.24
21,CCOc1ccc(NC(=O)c2ccc(Cl)c(NC(=O)c3ccco3)c2)cc1,9.67
22,CCN(CC)C(=O)Oc1ccc(OC(=O)N(CC)CC)cc1,13.8

row,SMILES,"hERG current change (%, negative = inhibition) at 1uM [%]"
1,C=CCSc1nnc(C)c(/C=C/Nc2ccc(Cl)cc2)n1,7.38
2,COc1ccc(Cc2n[nH]c(=S)o2)cc1,10
3,CCCCOc1cccc(C2(C(=O)O)CCCC2)c1,-25.8
4,CCCc1cc(-c2n[nH]c(C(=O)OCC)c2-c2cscn2)c(O)cc1O,0.895
5,CCCCOP(=O)(OCCCC)/C(C#N)=C(/C)O,5.78
6,CCOC(=O)C1(Cc2ccccc2C)CCCN(C(=O)c2sccc2C)C1 (stereo not shown),12.4
7,NS(=O)(=O)c1cccc(NC(=O)COC(=O)Cn2cc(C(F)(F)F)ccc2=O)c1,17.4
8,Cc1ccc(N=Nc2c(C)[nH]n(-c3ccccc3)c2=O)cc1Br,8.79
9,CC(C)c1ccc(C2NC(=O)CCC2[N+](=O)[O-])cc1 (stereo not shown),-6.26
10,CC1CCC2(CC1)NC(=O)N(Cc1cccc(C(F)(F)F)c1)C2=O (stereo not shown),16.2
11,O=C(CSc1nnc(-c2cccs2)n1-c1ccccc1)N1CCCc2ccccc21,3.35
12,CCCN(CC(=O)Nc1ccccc1C)C(=O)Cc1n[nH]c(=O)c2ccccc12,3.38
13,Cc1cc(NCc2ccc(F)cc2)nc2cc(Cl)ccc12,14.3
14,COC(=O)CCCn1nc(NC(=O)c2ccco2)cc1C,9.2
15,COc1ccc(S(=O)(=O)NCc2ccco2)cc1NC(=O)c1ccccc1,5.36
16,Cn1cc(Br)c(C(=O)Nc2ccc3c(C(F)(F)F)cc(=O)oc3c2)n1,13
17,O=C(Nc1ccc2c(c1)OCO2)Nc1ccc(Cl)cc1Cl,7.73
18,O=C(NN=C1CCN(Cc2ccccc2)CC1)c1cc2ccccc2cc1O,8.82
19,C/C(=C\CNc1ncnc2nc[nH]c12)CO,11.7
20,CCOC(=O)N1CCN(CC(=O)Nc2nc3ccc(OC)cc3s2)CC1,4.56
21,COc1ccc(CCN(Cc2cccs2)S(=O)(=O)c2ccc(-n3cnnn3)c(OC)c2)cc1OC,10.8
22,O=C(NCCc1ccccc1)C(=O)c1c(-c2ccccc2)cc2ccccn12,12.4

row,SMILES,"hERG current change (%, negative = inhibition) at 1uM [%]"
1,COc1ccccc1OCCn1cc(/C=N/NC(N)=S)c2ccccc21,6.65
2,CCCCn1c(N)c(N(CC(C)C)C(=O)CSCC(=O)Nc2ccc(C)cc2)c(=O)[nH]c1=O,15.3
3,O=C(O)/C=C\C(=O)Nc1ccc(N2CCN(c3ccc(Cl)cc3)CC2)cc1,22.4
4,Cc1ccc(C(=O)COC(=O)C(C)N2C(=O)C3C4CCC(C4)C3C2=O)cc1C (stereo not shown),4.6
5,O=C(O)CCCn1cc(NC(=O)COc2ccccc2F)cn1,17.5
6,N#C/C(=C/c1ccncc1)c1nc2ccccc2s1,5.07
7,Cc1c(NC(=O)Cc2cccs2)cccc1[N+](=O)[O-],12.6
8,CCn1cc(C(=O)N[C@@H](C)C(=O)OC)c(=O)c2cc3c(cc21)OCO3,-0.822
9,COc1ccc(NC(=O)CC2CCCC2)cc1S(=O)(=O)N1CCCCC1,2.09
10,Cn1c(=O)c2c(nc(SCC(=O)O)n2Cc2cc3c(cc2Cl)OCO3)n(C)c1=O,4.14
11,OCC1(Cc2ccccc2)CCN(Cc2cnc(-c3cccc4ccccc34)nc2)CC1,12.9
12,CCOCCCNC(=O)NC12CC3CC(CC(C3)C1)C2,20
13,CC(C)NC(=O)c1cc(-c2ccco2)nn1-c1ccc(Cl)cc1,4.07
14,CC(=O)N=c1sc2nc3ccccc3nc2n1N(C(C)=O)C(C)=O,24.5
15,COc1ccc(CC/C(C)=N\NC(N)=O)cc1,15
16,CC(=O)Nc1cc2c3c(c1)CCC(=O)N3CCC2,22.1
17,O=C(CNC(=O)c1ccc([N+](=O)[O-])cc1)N/N=C/c1c[nH]c2ccccc12,9.45
18,Cc1ccc([C@@H]2[C@@H]3C(=O)N(C)C(=O)[C@@H]3[C@]3(Cc4ccccc4)C(=O)N(Cc4ccccn4)CC(=O)N23)o1,14.5
19,CCCC(=O)Nc1nc(-c2ccccc2)c(CC)s1,4.11
20,COc1ccc(S(=O)(=O)c2c(C)c(NS(=O)(=O)c3ccccc3)cc(C)c2O)cc1,14.3
21,Cc1ccc(/C=C2\SC(=S)N(CC(=O)Nc3cccnc3)C2=O)cc1,-0.402
22,CCC(=O)N1c2ccc(S(=O)(=O)N3CCN(C)CC3)cc2CC1C (stereo not shown),4.4
